Measurements as given in US20210054047A1 (KOREA INSTITUTE OF SCIENCE AND TECHNOLOGY, published 2021).

Target: T1, monomeric TRAIL (mTRAIL) extracellular domain (Homo sapiens (Human), UniProt P50591 95-281)
T1 construct: Expressed in E. coli from pET28a-mTRAIL and purified on Ni-NTA; a vector tag is not spelled out
Experiment: SPR, DR5-Fc captured on Protein A chip, 25° C., 1:1 Langmuir model
Protocol: DR4 and DR5-fc chimeric proteins (R&D systems 347-DR-100, 631-T2-100) were immobilized on the surface of the Planar Protein A sensor chip (Reichert, 13206069) and the receptors were coated at a level of 300 to 500 resonance units. […] Each analyte was run at 50 μL/min using running and sample buffer (0.5 M Tris-HCl (pH 7.4), 150 mM NaCl, 0.005% Tween 20), and binding of the ligand to the receptor was performed and monitored in real time. For titration sensorgrams, a simple 1:1 Langmuir interaction model (A+B↔AB) was applied using the data analysis program Scrubber 2.0 (BioLogic Software, Australia, and KaleidaGraph Software, Australia) and CLAMP software.
The affinity KD was determined from the formula of KD=kd/ka.

B1: DR5-Fc chimeric protein (R&D systems 631-T[…]) (Fc fusion)
chain: not shown
notes: Bought (R&D systems 631-T[…]); Captured on a Protein A sensor chip; also called TRAIL R2; death receptor 5; Fc part of the bought chimera not given
B1 was tested, and the Kd was 25.4 nM, the koff was 3.87e-05 s⁻¹ and the kon was 1480 M⁻¹ s⁻¹.
